{"source": "PubChem BioAssay AID1963576", "about": "(National Center for Advancing Translational Sciences (NCATS), 2024)", "note": "Hit rate of the full screen: of about 46,000 compounds, about 60 (0.1%) were called active. About 3% were inconclusive and are not listed. The call rests on the fitted dose curve; in most records, active means well fitted inhibition curve with a large enough effect; inconclusive means small, poorly fitted or top-dose-only effect; inactive means no such curve, though single readings can be large or run the other way. The list shows a part of the results."}
{"assay": "Primary qHTS assay for Inhibitors of ovarian cancer metastasis using an organotypic tumor microenvironment (TME) model; further: nearly all actives have a fitted effect of over 65% in size;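 on activity change, negative = inhibition: plate controls were DMSO wells for no effect and tomatine positive control wells for full effect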.", "conditions": "SKOV3ip1-GFP adhesion/invasion on 3D omental model, fluorescence; series mostly up to 45.8 µM; activity change, negative = inhibition: at the top concentration", "how_it_was_run": "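Primary human omental fibroblast/mesothelial 3D culture pre-formed 48 h. SKOV3ip1-GFP cells added with compounds (0.36-46 umol/L), incubated 2 h RT/16 h 37 C, fixed; GFP cells quantified at 488/509 nm.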"}
{"smiles": "CC(C)CCNC(=O)Cn1cc(S(=O)(=O)Cc2ccc(F)cc2)c2ccccc21", "activity change, negative = inhibition": "inactive: -8.81%"}
{"smiles": "COc1cc(NC(=O)Nc2c[nH]c(=O)[nH]c2=O)cc(OC)c1OC", "outcome": "inactive"}
{"smiles": "Cc1c(C(=O)Oc2ccc(Br)cc2)sc2ncn(Cc3ccccc3F)c(=O)c12", "activity change, negative = inhibition": "inactive: 1.86%"}
{"smiles": "Cc1ccc(NC(=O)C(=O)NCC(c2ccc3c(c2)OCO3)N2CCN(C)CC2)cc1C", "note": "(configuration not stated)", "activity change, negative = inhibition": "inactive: -19.1%"}
{"smiles": "COc1ccc(-c2cc(C(=O)NCc3ccc(C)cc3)c3cc(C(C)C)ccc3n2)cc1", "activity change, negative = inhibition": "inactive: 6.02%"}
{"smiles": "Cc1cc(S(=O)(=O)NCCc2csc(-c3cccc(F)c3)n2)ccc1F", "activity change, negative = inhibition": "inactive: 7.03%"}
{"smiles": "CCCC(=O)OC1=C(C(C)=O)N(Cc2ccccc2)S(=O)(=O)c2ccccc21", "activity change, negative = inhibition": "inactive: 2.02%"}
{"smiles": "CC(=O)N1c2ccc(S(=O)(=O)NCC3CCC(C(=O)Nc4cccc(C)c4)CC3)cc2CC1C", "note": "(configuration not stated)", "activity change, negative = inhibition": "inactive: 5.65%"}
{"smiles": "COc1cccc2cc(-c3nc4ccc(C)cc4[nH]3)c(=O)oc12", "activity change, negative = inhibition": "inactive: -11.3%"}
{"smiles": "O=C(NCCCN1CCN(c2ccccc2F)CC1)c1sc2ncccc2c1-n1cccc1", "activity change, negative = inhibition": "inactive: -13.7%"}
{"smiles": "O=C1CCSC2(C(=O)N(Cc3ccccc3)c3ccccc32)N1c1ccccc1", "note": "(configuration not stated)", "activity change, negative = inhibition": "inactive: -4.96%"}
{"smiles": "CCCCOc1ccc(S(=O)(=O)n2nc(C)c(S(=O)(=O)N3CCCCCC3)c2C)cc1", "activity change, negative = inhibition": "inactive: -9.04%"}
{"smiles": "O=C(CCS(=O)(=O)c1cc2c(cc1Cl)NC(=O)CO2)NCc1ccccc1", "activity change, negative = inhibition": "inactive: -17.5%"}
{"smiles": "CCCCNC(=O)c1cnc2c(-c3ccc(OCC)c(OCC)c3)c(C)nn2c1-c1ccccc1", "outcome": "inactive"}
{"smiles": "CCc1ccc2nc(N3CCC(C(=O)NCCC(C)C)CC3)sc2c1", "activity change, negative = inhibition": "inactive: -4.29%"}
{"smiles": "CCN(Cc1ccccc1)S(=O)(=O)c1ccc(N2CCCCS2(=O)=O)cc1", "activity change, negative = inhibition": "inactive: -14%"}
{"smiles": "CCc1cccc(C)c1NC(=O)c1cc2ccccc2o1", "activity change, negative = inhibition": "inactive: -8.67%"}
{"smiles": "O=C(NCc1ccccc1)c1ccc(CSc2nc3cccnc3n2Cc2ccccc2)cc1", "activity change, negative = inhibition": "inactive: 1.77%"}
{"smiles": "Cn1cc(S(=O)(=O)c2ccccc2)c(=O)c2cc(F)c(N3CCCC3)cc21", "activity change, negative = inhibition": "inactive: 21.4%"}
{"smiles": "CC(=O)OCC(CCn1cnc2cnc(N)nc21)COC(C)=O", "activity change, negative = inhibition": "inactive: 2.98%"}
{"smiles": "COc1ccc(CCNC(=O)c2cc3c(=O)n4ccccc4nc3n2C)cc1", "activity change, negative = inhibition": "inactive: 2.52%"}
{"smiles": "NNc1nncc2ccccc12", "activity change, negative = inhibition": "inactive: -1.19%"}
{"smiles": "CCC(=O)N1CCc2cc(Br)cc(S(=O)(=O)N3CCC(C(=O)Nc4cccc(C)c4)CC3)c21", "activity change, negative = inhibition": "inactive: 2.58%"}
{"smiles": "Cc1cc2c(cc3c(SCc4cccc(Cl)c4)nnc(C)n32)o1", "outcome": "inactive"}
{"smiles": "CCC(Cn1nnc2ccccc2c1=O)NC(=O)Nc1cc(OC)cc(OC)c1", "note": "(configuration not stated)", "activity change, negative = inhibition": "inactive: 2.46%"}
{"smiles": "CCc1ccc(NC(=O)CSC2=Nc3ccccc3C3=NC(CC(=O)NCc4cccs4)C(=O)N23)cc1", "note": "(configuration not stated)", "activity change, negative = inhibition": "inactive: -6.86%"}
{"smiles": "COc1cccc(N2CCN(C(=O)c3ccc4c(Cl)c5c(nc4c3)CCCC5)CC2)c1", "outcome": "inactive"}
{"smiles": "COc1ccc(NC(=O)Cn2cc(S(=O)(=O)c3ccccc3)c(=O)c3cc(C)ccc32)cc1Cl", "activity change, negative = inhibition": "inactive: -7.25%"}
{"smiles": "CC(=O)Nc1ccc(S(=O)(=O)N2CCN(c3ccc(C)c(C)c3)CC2)cc1", "outcome": "inactive"}
{"smiles": "Cc1cc(N2CCN(C)CC2)nc2ccc(NC(=O)c3ccccc3F)cc12", "activity change, negative = inhibition": "inactive: -6.77%"}
{"smiles": "CC(=O)c1ccc(NC(=O)CSc2nc3c(=O)n(C)c(=O)n(C)c3n2C)cc1", "outcome": "inactive"}
{"smiles": "CCCSc1nnc(NC(=O)Cc2coc3cc(C)ccc23)s1", "activity change, negative = inhibition": "inactive: 2.85%"}
{"smiles": "O=c1c2cccnc2n(Cc2ccc(Cl)cc2)c(=O)n1Cc1ccc(F)cc1", "activity change, negative = inhibition": "inactive: -2.34%"}
{"smiles": "CNC(=O)c1cccc(-n2c(C)nc3cccnc32)c1C", "activity change, negative = inhibition": "inactive: 6.93%"}
{"smiles": "Cc1cc(OCC(=O)Nc2ccc(C(=O)OC3CCCCC3)cc2)ccc1Cl", "outcome": "inactive"}
{"smiles": "Cc1cccc(NC(=O)Nc2ccc(C)c(C)c2)n1", "activity change, negative = inhibition": "inactive: 69.5%"}
{"smiles": "O=C(CSc1nnc2[nH]c(=O)cc(-c3ccccc3)n12)Nc1ccccc1C(F)(F)F", "activity change, negative = inhibition": "inactive: -7.25%"}
{"smiles": "CC1CCCCN1CCCNC(=O)c1sc2ncccc2c1-n1cccc1", "note": "(configuration not stated)", "activity change, negative = inhibition": "inactive: 9.35%"}
{"smiles": "COc1ccc(OC)c(NC(=O)C2CCN(S(=O)(=O)c3c(C)noc3/C=C/c3ccc(C)cc3)CC2)c1", "outcome": "inactive"}
{"smiles": "O=C(c1c[nH]c2ccc(S(=O)(=O)Nc3ccccc3F)cc2c1=O)N1CCCCCC1", "activity change, negative = inhibition": "inactive: 2.11%"}
{"smiles": "CC(C)c1ccc(C(=O)CC2(O)C(=O)N(CCc3ccccc3)c3ccc(Cl)cc32)cc1", "note": "(configuration not stated)", "activity change, negative = inhibition": "inactive: -15.6%"}
{"smiles": "CCOc1ccc(NC(=O)C(=O)NCCc2sc(-c3ccc(C)cc3)nc2C)cc1", "activity change, negative = inhibition": "inactive: 14.6%"}
{"smiles": "COc1cccc(NC(=O)Cn2nc(-c3ccncc3)ccc2=O)c1", "activity change, negative = inhibition": "inactive: 21.5%"}
{"smiles": "CNC(=O)C1CCC(Cn2c(=O)c3sccc3n(CC(=O)Nc3cc(C)cc(C)c3)c2=O)CC1", "note": "(configuration not stated)", "activity change, negative = inhibition": "inactive: -1.46%"}
{"smiles": "COc1ccc(CN2CCc3nc(N4CCN(c5ccc(F)cc5)CC4)ncc3C2)c(OC)c1OC", "activity change, negative = inhibition": "inactive: -12.5%"}
{"smiles": "CCOCCCNC(=O)C1CCN(c2nc3ccc(Cl)cc3[nH]2)CC1", "activity change, negative = inhibition": "inactive: 6.02%"}
{"smiles": "C=CC(=O)Nc1cccc(Oc2nc(Nc3ccc(N4CCN(C)CC4)cc3OC)ncc2Cl)c1", "activity change, negative = inhibition": "inactive: 9.55%"}
{"smiles": "O=C(c1cnn(-c2ccc(F)cc2)c1-n1cccc1)N1CCN(c2cccc(Cl)c2)CC1", "activity change, negative = inhibition": "inactive: 1.16%"}
{"smiles": "CCCN1C(=O)c2[nH]nc(-c3ccc(OC)cc3)c2C1c1ccccn1", "note": "(configuration not stated)", "activity change, negative = inhibition": "inactive: 11.6%"}
{"smiles": "COC(=O)c1sc(N2C(=O)c3oc4cc(C)c(C)cc4c(=O)c3C2c2ccccc2F)nc1C", "note": "(configuration not stated)", "activity change, negative = inhibition": "inactive: 8.62%"}
{"smiles": "O=S(=O)(NCc1csc(-c2ccccc2)n1)c1ccccc1", "outcome": "inactive"}
{"smiles": "COc1ccc(Cn2c(CNS(=O)(=O)c3ccc(Cl)s3)nc3cccnc32)cc1", "outcome": "inactive"}
{"smiles": "Cc1ccc(C(=O)Nc2cc(-c3nc4cc(Cl)ccc4o3)ccc2C)c(C)c1", "outcome": "inactive"}
{"smiles": "Cc1cccc(Cn2c(CN3CCC(C(=O)NCc4ccccc4Cl)CC3)cc3ccccc32)c1", "activity change, negative = inhibition": "inactive: 0.175%"}
{"smiles": "CCc1ccccc1NC(=O)Cn1c(=O)n(-c2ccccc2)c(=O)c2oc3ccccc3c21", "outcome": "inactive"}
{"smiles": "Cc1ccc(-n2c(-c3ccc(Br)cc3)nc3c(cnn3-c3ccccc3)c2=O)cc1", "activity change, negative = inhibition": "inactive: 0.843%"}
{"smiles": "O=C(Cn1c(=O)n(Cc2ccco2)c(=O)c2ccccc21)Nc1cccc(F)c1", "activity change, negative = inhibition": "inactive: -13.3%"}
{"smiles": "CC(=O)c1ccc(NC(=O)c2cnc(N3CCCC3)nc2C)cc1", "outcome": "inactive"}
{"smiles": "CCOc1cc(C#N)c(NC(=O)c2ccc(OC)c(S(=O)(=O)N3CCCCC3)c2)cc1OCC", "activity change, negative = inhibition": "inactive: -5.47%"}
{"smiles": "COc1ccc(NC(=O)Cn2c(=O)n(Cc3ccco3)c(=O)c3sc4ccccc4c32)cc1OC", "outcome": "inactive"}
{"smiles": "COc1ccc2c(c1)CC(C(=O)Nc1ccc(Br)c(C)c1)CO2", "note": "(configuration not stated)", "activity change, negative = inhibition": "inactive: 4.8%"}
{"smiles": "CCN(C(=O)CSc1nc(-c2ccc(C(C)C)cc2)no1)c1ccccc1", "activity change, negative = inhibition": "inactive: -8.38%"}
